Measurements taken from patent publication US11246910B2, “Methods of treating immunological disorders using immunosuppressive compositions” (Singapore Health Services Pte Ltd, priority 2016, dated 2022).

B1: IL-10: control molecule IL-10 (protein, UniProt P22301 19-178, looked up)
Interleukin-10: SPGQGTQSENSCTHFPGNLPNMLRDLRDAFSRVKTFFQMKDQLDNLLLKESLLEDFKGYLGCQALSEMIQFYLEEVMPQAENQDPDIKAHVNSLGENLKTLRLRLRRCHRFLPCENKSKAVEQVKNAFNKLQEKGIYKAMSEFDIFINYIEAYMTMKIRN
B2: CCL8: MSC-derived protein CCL8 (MCP-3) (protein, UniProt P80075 24-99, looked up)
C-C motif chemokine 8: QPDSVSIPITCCFNVINRKIPIQRLESYTRITNIQCPKEAVIFKTKRGKEVCADPKERWVRDSMKHLDQIFQNLKP
B3: OPG: upregulated MSC-derived protein OPG (protein, UniProt O00300 22-401, looked up)
Tumor necrosis factor …: ETFPPKYLHYDEETSHQLLCDKCPPGTYLKQHCTAKWKTVCAPCPDHYYTDSWHTSDECLYCSPVCKELQYVKQECNRTHNRVCECKEGRYLEIEFCLKHRSCPPGFGVVQAGTPERNTVCKRCPDGFFSNETSSKAPCRKHTNCSVFGLLLTQKGNATHDNICSGNSESTQKCGIDVTLCEEAFFRFAVPTKFTPNWLSVLVDNLPGTKVNAESVERIKRQHSSQEQTFQLLKLWKHQNKDQDIVKKIIQDIDLCENSVQRHIGHANLTFEQLRSLMESLPGKKVGAEDIEKTIKACKPSDQILKLLSLWRIKNGDQDTLKGLMHALKHSKTYHFPKTVTQSLKKTIRFLHSFTMYKLYQKLFLEMIGNQVQSVKISCL

What was measured:
DBA/1J mice with CIA = assay: Collagen-induced arthritis (CIA) mouse model; assay type: in vivo; conditions: treatment started on mice with mild arthritis (FIG. 21A)
Protocol: Arthritis was induced in 8 to 10 week-old DBA/1J mice following immunization with collagen and complete Freund's adjuvant (CFA) (Chondrex, USA). Complete Freund's adjuvant was prepared by mixing heat-inactivated mycobacterial strain H37RA in incomplete Freund's adjuvant (4 mg/mi). Lyophilized bovine type II collagen (Chondrex, USA) was dissolved overnight in acetic acid at 2 mg/ml. Complete Freund's adjuvant and collagen were mixed at a ratio of 1:1 to form an emulsion. 100 μg of collagen, which was then injected intradermally at the base of the tail. Mice were scored for arthritis weekly from day 30 after immunization. 50 ng/ml of CXCL5 was given twice/week to CIA mice for 3 consecutive weeks, to around day 40 to 50 post-induction, when mice started to show the arthritis symptoms. Mice treated with dPBS, bone marrow-derived mesenchymal stem cells (BM-MSCs; 5-10×10^6 cells/kg, single injection) and Prednisolone (Pred) (1 mg/kg/day for first 10 days, 0.5 mg/kg/day for the second 10 days) were used as positive and standard controls, respectively. Injection volume was normalized to the body weight of the mice. Mice were monitored for another 3 weeks post-treatment and then sacrificed for further analysis. Peripheral blood (PB) was collected on day 15 and day 42 post-treatment. Isolated blood cells and plasma were used for flow cytometry analysis and Luminex assay. […]

[1] = test system: two HLA-mismatched UCB-MNCs; assay: Mixed lymphocyte reaction (MLR), cell-mediated cytotoxicity by LDH detection (in vitro GVHD model); assay type: cell-based, human; conditions: lowest concentration giving maximum repression of cytotoxicity in MLR (FIG. 3)
Protocol: MLR served as an in vitro GVHD model and was initiated by co-culturing two HLA-mismatched UCB-MNCs at 15:1 effector/target (E/T) ratios in […] medium (Stem Cell Technologies) for 20 hours in 37° C., 5% CO2 incubator. The mixed lymphocytes (ML) were treated with BM-MSCs by co-culture without transwell inserts (i.e. physical direct contact) or with transwell inserts (i.e. indirect bidirectional regulation via the two secretomes) or with BM-MSC-conditional medium. Transwell inserts were placed at 0.5 mm and 0.9 mm above the well bottom, and the 1-day old BM-MSC culture medium was used as conditional medium (1d-CM). Untreated MLR was used as a negative control to set the cell-mediated cytotoxicity baseline of the MLR. The cell-mediated cytotoxicity was measured by lactate dehydrogenase (LDH) cytotoxicity detection kit (Roche). Following the kit instruction, the detection plate was incubated in the dark for 20 minutes at room temperature, and absorbance was measured at 490 nm with 650 nm as reference wavelength using Benchmark Plus microplate spectrophotometer (Bio-Rad).
All the proteins and antibodies were purchased from Peprotech. For each molecule, the lowest working concentration that caused the maximum repression of cytotoxicity by MLR was used for further analysis. In order to determine the optimal combination of interested cytokines, the twelve molecules were arranged in a 2^12 fractional FD table (Table 3). There were twelve factors with two levels. Level-1 meant without addition of this interested molecule, level-2 meant addition of this interested molecule with optimal working concentration. Condition-1 without addition of any interested molecules served as negative control; Condition-16 with addition of full panel of interested molecules and MLR laid on MSCs served as positive control respectively.
Based on the maximal extend attenuating cell-mediated cytotoxicity, another 2^7 factorial FD (Table 4) was derived from Condition-6 in 2^12 fractional FD, which involved IL-10, OPG, CXCL5, CXCL6, CCL20 anti-CCL1 and anti-CCL24.
Similarly, a 2^4 full FD (Table 5) was further derived from Condition-6 in 2^7 fractional FD, which involved OPG, CXCL5, anti-CCL1 and anti-CCL24.

[2] = test system: C57BL/6 (B6) mice with DAH; assay: Pristane-induced diffuse alveolar haemorrhage (DAH) mouse model; assay type: in vivo; conditions: for effector cells in lung, BALF and blood: FIGS. 18C, 18D; for prevalence of moderate to severe diffuse alveolar haemorrhage: day 14 post pristane (FIG. 18A)
[3] = test system: DBA/2J mice with bleomycin-induced skin fibrosis; assay: Bleomycin-induced scleroderma (systemic sclerosis) mouse model; assay type: in vivo; conditions: after 3-week treatment (FIG. 22A)
Protocol: Skin fibrosis was induced in 6 to 8-week-old DBA/2J mice by subcutaneous injection of bleomycin (0.5 mg/mi) into defined areas of 1 cm^2 on the lower back every other day, for 21 days. After a 3-week bleomycin challenge, another 3-week treatment was followed. 50 ng/ml of CXCL5 was given twice/week for 3 consecutive weeks. Mice treated with dPBS, bone marrow-derived mesenchymal stem cells (BM-MSCs; 5-10×10^6 cells/kg, single injection) and Prednisolone (Pred) (1 mg/kg/day for first 10 days, 0.5 mg/kg/day for the second 10 days) were used as positive and standard controls. Mice were sacrificed on day 21 post-treatment and the injected skin and peripheral blood were processed for further analysis.
Lesioned skin areas were excised, fixed in 10% formalin, and embedded in paraffin. Sections (5 μm thick) were stained with hematoxylin & eosin (H&E). The dermal thickness was analyzed at 100-fold magnification by measuring the distance between the epidermal-dermal junction and the dermal-subcutaneous fat junction at four sites from the lesioned skin of each mouse. Dermal leukocyte infiltration was counted on randomly-taken photos with High Power Field (HPF) (400×). Five photos were taken for each mouse. The average cell number of these five photos was used for counting the leukocyte infiltration. Two independent examiners performed the evaluation.

Row | Molecule | optimal in vitro working concentration [1] | also measured
1 | CN(Cc1cnc2nc(N)nc(N)c2n1)c1ccc(C(=O)N[C@@H](CCC(=O)O)C(=O)O)cc1 [MTX, methotrexate, reference compound] |  | disease activity index (DAI) (DBA/1J mice with CIA): 11.5±2.8
2 | CCL7: MSC-derived protein CCL7 (MCP-2) | 50 ng/mL | 
3 | C[C@]12C=CC(=O)C=C1CC[C@@H]1[C@@H]2[C@@H](O)C[C@@]2(C)[C@H]1CC[C@]2(O)C(=O)CO [Prednisolone, reference compound] |  | effector cells in lung, BALF and blood [2]: reduction in the accumulation of macrophages in bronchoalveolar lavage fluid; prevalence of moderate to severe diffuse alveolar haemorrhage [2]: 76.5%; skin thickness [3]: 309.0±95.3 μm
4 | CXCL5: epithelial-derived neutrophil-activating protein 78, a CXC chemokine; human source |  | effector cells in lung, BALF and blood [2]: suppressing pulmonary neutrophils infiltration; prevalence of moderate to severe diffuse alveolar haemorrhage [2]: 50.0%
5 | CCCCC[C@H](O)/C=C/[C@H]1[C@H](O)CC(=O)[C@@H]1C/C=C\CCCC(=O)O [PGE2, prostaglandin E2, reference compound] | 2 µM | 
6 | CCL20: MSC-derived protein CCL20 (MIP-3α) | 50 ng/mL | 
7 | CXCL6: MSC-derived protein CXCL6 (GCP-2) | 10 ng/mL | 
8 | B1 | 10 ng/mL | 
9 | B2 | 10 ng/mL | 
10 | B3 | 10 ng/mL | 
